The supplement of paper PMC4967469

How the values were obtained:
Experiment in all cases: Viability of human cancer cell lines after 72 h of drug (GDSC screen)
[1] = compound: CN1CCN(CCOc2cc(OC3CCOCC3)c3c(Nc4c(Cl)ccc5c4OCO5)ncnc3c2)CC1 [AZD-0530]; settings: top dose 2 µM
Method: (§1)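 Human cancer cell lines in 384-well plates, medium with 10% serum, drug for 72 h over a 256-fold dose range (nine 2-fold or five 4-fold steps up to the top dose). Adherent lines were fixed and stained with the nucleic acid dye Syto60, suspension lines read with resazurin; signal relative to control wells, capped at 0 and 100%. One two-parameter sigmoid per drug and line, fitted in a mixed model over all curves with the slope shared within a line.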

[2] = compound: C/C(=C\c1csc(C)n1)[C@@H]1C[C@@H]2O[C@]2(C)CCC[C@H](C)[C@H](O)[C@@H](C)C(=O)C(C)(C)[C@@H](O)CC(=O)O1 [Epothilone B]; settings: top dose 0.032 µM; top dose inferred
Method: as §1

[3] = compound: CC(C)CC(=O)Nc1n[nH]c2c1CN(C(=O)C1CCN(C)CC1)C2(C)C [PHA-793887]; settings: top dose 10.24 µM
Method: as §1

[4] = compound: CCCS(=O)(=O)Nc1ccc(F)c(C(=O)c2c[nH]c3ncc(Cl)cc23)c1F [PLX4720]; settings: top dose 10 µM
Method: as §1

[5] = compound: C[C@@H](N)c1ccc(C(=O)Nc2ccnc3[nH]ccc23)cc1 [Y-39983]; settings: top dose 20 µM; top dose inferred
Method: as §1

[6] = compound: NC(=O)Nc1sc(-c2ccc(F)cc2)cc1C(N)=O [TPCA-1]; settings: top dose 20 µM
Method: as §1

[7] = compound: CCc1nc(N)nc(N)c1-c1ccc(Cl)cc1 [Pyrimethamine]; settings: top dose 20 µM; top dose inferred
Method: as §1

[8] = screen: GDSC drug entry 1371, top dose inferred

Cell Line	AUC [1]	IC50 [1]	AUC [2]	IC50 [2]	AUC [3]	IC50 [3]	AUC ([4]; screen: GDSC drug entry 1036)	IC50 ([4]; screen: GDSC drug entry 1036)	AUC [4, 8]	IC50 [4, 8]	AUC [5]	IC50 [5]	AUC [6]	IC50 [6]	AUC [7]	IC50 [7]
A704 (kidney, adherent)	0.801	0.942 µM	0.684	0.00641 µM	0.989	> 10.2 µM	0.935	> 10 µM	0.963	> 10 µM	0.904	> 20 µM	0.873	18.2 µM		
BT-474 (breast, adherent)			0.775	0.0142 µM	0.868	> 10.2 µM	0.985	> 10 µM	0.97	> 10 µM	0.968	> 20 µM	0.963	> 20 µM	0.981	> 20 µM
CL-11 (large intestine, adherent)			0.969	> 0.032 µM	0.987	> 10.2 µM	0.987	> 10 µM	0.986	> 10 µM	0.983	> 20 µM	0.962	> 20 µM	0.986	> 20 µM
D-247MG (glioma, adherent)	0.919	> 2 µM			0.98	> 10.2 µM	0.949	> 10 µM	0.971	> 10 µM	0.928	> 20 µM	0.98	> 20 µM	0.978	> 20 µM
D-392MG (glioma, adherent)			0.921	> 0.032 µM	0.914	> 10.2 µM	0.96	> 10 µM	0.978	> 10 µM	0.981	> 20 µM	0.861	> 20 µM	0.961	> 20 µM
D-542MG (glioma, adherent)			0.976	> 0.032 µM	0.984	> 10.2 µM	0.977	> 10 µM	0.982	> 10 µM	0.952	> 20 µM	0.978	> 20 µM	0.981	> 20 µM
DOHH-2 (B-cell lymphoma, suspension)	0.865		0.661	0.00553 µM			0.926	> 10 µM							0.925	> 20 µM
ECC12 (stomach, suspension)															0.611	2.73 µM
EHEB (lymphoid neoplasm, suspension)	0.923	> 2 µM	0.805	0.0258 µM			0.938	> 10 µM	0.931	> 10 µM						
EW-12 (Ewing sarcoma, suspension)	0.97	> 2 µM													0.921	> 20 µM
EW-22 (Ewing sarcoma, adherent)	0.985	> 2 µM					0.964	> 10 µM	0.943	> 10 µM					0.866	16.6 µM
EoL-1-cell (haematopoietic neoplasm, suspension)	0.898	1.99 µM	0.636	0.00452 µM	0.618	1.3 µM	0.804	4.32 µM	0.828	5.21 µM	0.484	1.14 µM	0.344	0.488 µM		
GA-10 (Burkitt lymphoma, suspension)	0.735	0.512 µM					0.948	> 10 µM	0.963	> 10 µM					0.897	18.1 µM
GAK (melanoma, adherent)			0.708	0.00744 µM	0.99	> 10.2 µM	0.972	> 10 µM	0.959	> 10 µM	0.987	> 20 µM	0.951	> 20 µM	0.989	> 20 µM
HCC2998 (large intestine, adherent)			0.349	0.000772 µM	0.884	> 10.2 µM					0.976	> 20 µM	0.952	> 20 µM	0.747	
HCE-4 (oesophagus, adherent)	0.975	> 2 µM	0.476	0.00174 µM	0.992	> 10.2 µM					0.988	> 20 µM	0.989	> 20 µM		
HEL (acute myeloid leukaemia, semi-adherent)	0.992	> 2 µM	0.597	0.00351 µM	0.761	3.08 µM			0.991	> 10 µM	0.966	> 20 µM	0.426	0.811 µM		
HH (T-cell leukaemia, suspension)			0.705	0.00928 µM	0.496	0.62 µM	0.923	> 10 µM	0.949	> 10 µM	0.755	8.87 µM	0.647	3.67 µM	0.875	> 20 µM
IA-LM (large cell lung carcinoma, adherent)	0.985	> 2 µM	0.32	0.000588 µM	0.826	7.25 µM	0.913	> 10 µM	0.931	> 10 µM	0.971	> 20 µM	0.95	> 20 µM		
JSC-1 (B-cell lymphoma, suspension)	0.977	> 2 µM	0.573	0.00316 µM	0.353	0.251 µM	0.952	> 10 µM	0.962	> 10 µM	0.742	6.11 µM	0.354	0.495 µM		
K-562 (chronic myeloid leukaemia, suspension)	0.852	1.47 µM														
KARPAS-620 (haematopoietic neoplasm, suspension)	0.991	> 2 µM	0.492	0.00191 µM	0.474	0.548 µM	0.991	> 10 µM	0.99	> 10 µM	0.824	9.73 µM	0.609	2.38 µM		
KASUMI-1 (acute myeloid leukaemia, suspension)	0.982	> 2 µM			0.368	0.277 µM			0.807	5.17 µM					0.983	> 20 µM

By IC50 is meant the dose at which the fit gives 50% viability; a limit (>, <) means that the fit lies beyond the doses tested. For AUC the same curve is integrated over the 256-fold range of doses and scaled to a fraction: 1 means no effect, lower means more sensitive. For part of these data: A top dose marked as inferred comes from the curve model; the source does not state it. For part of these data: Drugs with an entry number were screened twice under separate entries, and the two screens often disagree.
